According to PMC6084981:
Read-outs that look alike come from different tables or passages of the source. These are yes or no findings as the source states them, for the method shown. Binding seen in cells or lysates may run through a third protein. Some binding calls cover weakened binding; strength is not graded here. For some assays here: Where a sequence is shown, tags or fusion partners need not be part of it.

Protein sequences, listed by entry. Tags and fused reporters are not part of them. Lines headed by an entry give the natural chain unless they say otherwise; changes in a name come on top. Chains listed by the source or under a name are the forms on record and can include a tag or linker.
UniProt Q9FLP6: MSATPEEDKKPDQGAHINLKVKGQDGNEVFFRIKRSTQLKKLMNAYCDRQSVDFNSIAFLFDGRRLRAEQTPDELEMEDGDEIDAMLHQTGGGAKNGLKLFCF
UniProt Q9M658: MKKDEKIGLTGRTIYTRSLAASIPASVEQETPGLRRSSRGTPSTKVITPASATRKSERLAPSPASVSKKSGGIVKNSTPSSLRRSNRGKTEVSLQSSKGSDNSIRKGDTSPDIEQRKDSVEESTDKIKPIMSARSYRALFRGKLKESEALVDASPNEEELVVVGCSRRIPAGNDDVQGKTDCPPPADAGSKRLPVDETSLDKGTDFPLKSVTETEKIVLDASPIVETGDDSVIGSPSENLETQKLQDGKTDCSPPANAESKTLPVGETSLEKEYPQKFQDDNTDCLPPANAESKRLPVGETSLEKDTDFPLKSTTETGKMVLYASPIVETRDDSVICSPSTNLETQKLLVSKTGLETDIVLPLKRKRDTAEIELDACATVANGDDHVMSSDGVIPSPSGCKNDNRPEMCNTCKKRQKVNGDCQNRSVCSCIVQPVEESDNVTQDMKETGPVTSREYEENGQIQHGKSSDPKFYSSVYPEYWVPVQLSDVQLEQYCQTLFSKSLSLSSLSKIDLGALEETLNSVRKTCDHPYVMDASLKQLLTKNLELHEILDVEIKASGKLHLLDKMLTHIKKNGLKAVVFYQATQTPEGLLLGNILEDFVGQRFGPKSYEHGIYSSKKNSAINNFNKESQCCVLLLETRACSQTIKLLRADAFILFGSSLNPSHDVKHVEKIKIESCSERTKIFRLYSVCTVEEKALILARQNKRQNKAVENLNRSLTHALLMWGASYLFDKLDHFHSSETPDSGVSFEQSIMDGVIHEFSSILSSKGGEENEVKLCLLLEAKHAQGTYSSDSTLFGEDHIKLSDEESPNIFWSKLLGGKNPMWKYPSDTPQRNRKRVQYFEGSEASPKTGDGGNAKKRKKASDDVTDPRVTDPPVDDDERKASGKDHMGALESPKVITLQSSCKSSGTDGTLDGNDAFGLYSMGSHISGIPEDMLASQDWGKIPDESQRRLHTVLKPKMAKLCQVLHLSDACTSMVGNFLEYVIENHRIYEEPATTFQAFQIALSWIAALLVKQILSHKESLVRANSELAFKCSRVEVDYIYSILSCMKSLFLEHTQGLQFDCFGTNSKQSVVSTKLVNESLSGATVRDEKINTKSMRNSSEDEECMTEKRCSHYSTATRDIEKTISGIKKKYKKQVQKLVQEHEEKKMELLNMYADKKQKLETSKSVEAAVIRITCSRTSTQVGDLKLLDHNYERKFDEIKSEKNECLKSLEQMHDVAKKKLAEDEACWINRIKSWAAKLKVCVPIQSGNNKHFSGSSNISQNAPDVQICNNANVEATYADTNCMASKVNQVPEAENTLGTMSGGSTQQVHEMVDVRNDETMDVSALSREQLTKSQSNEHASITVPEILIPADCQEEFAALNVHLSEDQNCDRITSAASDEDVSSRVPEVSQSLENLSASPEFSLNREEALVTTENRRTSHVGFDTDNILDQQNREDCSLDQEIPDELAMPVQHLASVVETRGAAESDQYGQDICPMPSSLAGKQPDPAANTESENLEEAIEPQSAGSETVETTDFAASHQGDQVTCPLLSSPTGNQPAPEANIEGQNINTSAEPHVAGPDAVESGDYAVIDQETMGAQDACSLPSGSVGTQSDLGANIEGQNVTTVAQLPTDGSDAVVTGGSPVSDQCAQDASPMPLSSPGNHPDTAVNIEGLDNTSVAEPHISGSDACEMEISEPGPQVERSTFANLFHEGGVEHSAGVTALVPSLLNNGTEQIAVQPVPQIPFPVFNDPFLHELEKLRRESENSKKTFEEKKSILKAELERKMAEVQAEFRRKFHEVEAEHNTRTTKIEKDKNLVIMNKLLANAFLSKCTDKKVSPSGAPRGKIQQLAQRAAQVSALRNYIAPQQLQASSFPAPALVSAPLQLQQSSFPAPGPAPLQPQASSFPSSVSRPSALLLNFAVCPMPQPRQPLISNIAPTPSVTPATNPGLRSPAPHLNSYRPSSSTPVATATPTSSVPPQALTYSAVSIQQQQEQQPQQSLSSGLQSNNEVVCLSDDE
MOM1-CMM2-M-Flag (Q9M658, form named): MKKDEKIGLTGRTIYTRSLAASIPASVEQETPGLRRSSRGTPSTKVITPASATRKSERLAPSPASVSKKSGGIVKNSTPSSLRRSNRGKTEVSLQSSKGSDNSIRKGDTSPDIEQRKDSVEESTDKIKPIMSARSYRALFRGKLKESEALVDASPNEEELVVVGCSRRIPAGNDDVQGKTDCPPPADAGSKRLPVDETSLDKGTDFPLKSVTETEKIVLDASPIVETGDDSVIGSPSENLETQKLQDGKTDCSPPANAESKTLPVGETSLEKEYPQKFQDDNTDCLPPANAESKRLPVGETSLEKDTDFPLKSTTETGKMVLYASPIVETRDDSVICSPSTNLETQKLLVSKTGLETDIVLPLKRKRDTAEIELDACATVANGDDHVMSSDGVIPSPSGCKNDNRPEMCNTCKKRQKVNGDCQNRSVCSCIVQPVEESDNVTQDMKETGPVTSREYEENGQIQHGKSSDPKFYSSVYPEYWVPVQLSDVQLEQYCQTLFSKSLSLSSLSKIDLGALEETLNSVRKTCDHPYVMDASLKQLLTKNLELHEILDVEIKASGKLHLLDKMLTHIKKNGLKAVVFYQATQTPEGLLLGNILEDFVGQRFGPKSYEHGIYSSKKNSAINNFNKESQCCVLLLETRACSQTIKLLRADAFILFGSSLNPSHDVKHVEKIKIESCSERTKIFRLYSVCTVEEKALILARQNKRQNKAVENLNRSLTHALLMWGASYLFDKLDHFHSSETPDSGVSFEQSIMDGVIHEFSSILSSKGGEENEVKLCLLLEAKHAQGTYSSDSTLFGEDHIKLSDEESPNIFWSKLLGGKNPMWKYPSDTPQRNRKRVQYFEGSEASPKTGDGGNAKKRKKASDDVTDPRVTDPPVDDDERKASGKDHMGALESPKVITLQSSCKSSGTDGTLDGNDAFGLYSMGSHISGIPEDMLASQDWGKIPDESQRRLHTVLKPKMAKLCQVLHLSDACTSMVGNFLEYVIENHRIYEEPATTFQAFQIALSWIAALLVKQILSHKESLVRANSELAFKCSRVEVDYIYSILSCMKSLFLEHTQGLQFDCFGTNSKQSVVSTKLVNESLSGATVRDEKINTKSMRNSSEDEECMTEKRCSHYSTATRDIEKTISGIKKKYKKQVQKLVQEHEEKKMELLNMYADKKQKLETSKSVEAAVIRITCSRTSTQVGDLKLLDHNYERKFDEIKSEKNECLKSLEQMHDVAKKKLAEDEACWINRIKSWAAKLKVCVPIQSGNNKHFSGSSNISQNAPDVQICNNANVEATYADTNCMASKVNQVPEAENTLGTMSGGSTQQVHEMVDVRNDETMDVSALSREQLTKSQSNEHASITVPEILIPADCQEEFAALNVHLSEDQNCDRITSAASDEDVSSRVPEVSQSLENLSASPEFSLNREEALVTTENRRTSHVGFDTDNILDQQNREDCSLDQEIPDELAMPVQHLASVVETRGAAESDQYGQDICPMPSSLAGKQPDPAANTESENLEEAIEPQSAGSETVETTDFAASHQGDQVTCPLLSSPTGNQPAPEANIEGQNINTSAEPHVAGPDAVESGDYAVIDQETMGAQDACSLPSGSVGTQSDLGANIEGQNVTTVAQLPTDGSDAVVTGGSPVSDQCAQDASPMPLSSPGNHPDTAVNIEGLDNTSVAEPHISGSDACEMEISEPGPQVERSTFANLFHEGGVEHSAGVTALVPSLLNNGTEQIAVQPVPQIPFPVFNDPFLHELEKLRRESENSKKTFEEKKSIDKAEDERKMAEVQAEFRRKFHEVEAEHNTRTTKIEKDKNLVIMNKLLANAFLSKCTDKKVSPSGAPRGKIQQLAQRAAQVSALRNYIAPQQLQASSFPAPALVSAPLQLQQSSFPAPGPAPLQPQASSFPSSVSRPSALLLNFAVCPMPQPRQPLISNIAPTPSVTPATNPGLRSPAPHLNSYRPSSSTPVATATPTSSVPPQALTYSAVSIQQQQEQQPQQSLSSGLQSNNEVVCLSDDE

T1: Flag-PIAL2 (Arabidopsis) (UniProt F4JYG0)
T1 sequence: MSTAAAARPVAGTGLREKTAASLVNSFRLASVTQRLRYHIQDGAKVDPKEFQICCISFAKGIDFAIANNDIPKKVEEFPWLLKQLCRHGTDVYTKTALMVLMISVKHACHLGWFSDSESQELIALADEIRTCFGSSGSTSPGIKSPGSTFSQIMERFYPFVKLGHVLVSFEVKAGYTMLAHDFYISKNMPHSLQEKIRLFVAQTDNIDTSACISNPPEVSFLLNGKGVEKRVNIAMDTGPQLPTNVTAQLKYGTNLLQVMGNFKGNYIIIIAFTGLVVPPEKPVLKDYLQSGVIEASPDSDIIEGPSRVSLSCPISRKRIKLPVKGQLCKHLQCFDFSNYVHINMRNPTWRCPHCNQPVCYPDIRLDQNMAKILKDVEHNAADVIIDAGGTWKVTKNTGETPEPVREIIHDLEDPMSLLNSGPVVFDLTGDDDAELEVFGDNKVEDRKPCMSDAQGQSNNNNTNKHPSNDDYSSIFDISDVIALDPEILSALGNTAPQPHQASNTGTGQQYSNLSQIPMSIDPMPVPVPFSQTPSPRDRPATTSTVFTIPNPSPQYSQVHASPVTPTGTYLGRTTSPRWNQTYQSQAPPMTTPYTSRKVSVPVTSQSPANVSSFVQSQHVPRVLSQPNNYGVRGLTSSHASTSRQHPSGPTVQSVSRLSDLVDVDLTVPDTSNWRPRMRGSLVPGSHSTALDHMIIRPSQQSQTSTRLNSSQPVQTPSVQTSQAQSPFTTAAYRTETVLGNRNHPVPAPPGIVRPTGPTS


What was measured:
Experiment in all cases: co-IP; protein extract of F1 plants carrying a Flag-tagged and a Myc-tagged transgene; anti-Flag affinity gel, eluted with 3xFlag peptide, western blotting
[1] = target: Flag-SUMO2 (Arabidopsis) (UniProt Q9FLP6)
[2] = target: MOM1-CMM2-M-Flag (Arabidopsis) (UniProt Q9M658)
[3] = target: MOM1-Flag (Arabidopsis) (UniProt Q9M658)
[4] = target: T1, Flag-PIAL2 (Arabidopsis)
[5] = target: MOM1-CMM2-M-Flag (Arabidopsis) (UniProt Q9M658); remark: listed apart in the source
[6] = target: MOM1-Flag (Arabidopsis) (UniProt Q9M658); remark: listed apart in the source

binding [1] | binding [2] | binding [3] | binding [4] | binding [5] | binding [6] | Molecule
no binding | no binding | binds | – | – | – | MOM1-Myc (from UniProt Q9M658 1-2001)
– | – | – | binds | binds weakly | binds | PIAL2-Myc (protein, UniProt F4JYG0 1-760) MSTAAAARPVAGTGLREKTAASLVNSFRLASVTQRLRYHIQDGAKVDPKEFQICCISFAKGIDFAIANNDIPKKVEEFPWLLKQLCRHGTDVYTKTALMVLMISVKHACHLGWFSDSESQELIALADEIRTCFGSSGSTSPGIKSPGSTFSQIMERFYPFVKLGHVLVSFEVKAGYTMLAHDFYISKNMPHSLQEKIRLFVAQTDNIDTSACISNPPEVSFLLNGKGVEKRVNIAMDTGPQLPTNVTAQLKYGTNLLQVMGNFKGNYIIIIAFTGLVVPPEKPVLKDYLQSGVIEASPDSDIIEGPSRVSLSCPISRKRIKLPVKGQLCKHLQCFDFSNYVHINMRNPTWRCPHCNQPVCYPDIRLDQNMAKILKDVEHNAADVIIDAGGTWKVTKNTGETPEPVREIIHDLEDPMSLLNSGPVVFDLTGDDDAELEVFGDNKVEDRKPCMSDAQGQSNNNNTNKHPSNDDYSSIFDISDVIALDPEILSALGNTAPQPHQASNTGTGQQYSNLSQIPMSIDPMPVPVPFSQTPSPRDRPATTSTVFTIPNPSPQYSQVHASPVTPTGTYLGRTTSPRWNQTYQSQAPPMTTPYTSRKVSVPVTSQSPANVSSFVQSQHVPRVLSQPNNYGVRGLTSSHASTSRQHPSGPTVQSVSRLSDLVDVDLTVPDTSNWRPRMRGSLVPGSHSTALDHMIIRPSQQSQTSTRLNSSQPVQTPSVQTSQAQSPFTTAAYRTETVLGNRNHPVPAPPGIVRPTGPTS
– | – | – | no binding | – | no binding | PIAL2-IND-M-Myc (protein, UniProt F4JYG0 1-760) MSTAAAARPVAGTGLREKTAASLVNSFRLASVTQRLRYHIQDGAKVDPKEFQICCISFAKGIDFAIANNDIPKKVEEFPWLLKQLCRHGTDVYTKTALMVLMISVKHACHLGWFSDSESQELIALADEIRTCFGSSGSTSPGIKSPGSTFSQIMERFYPFVKLGHVLVSFEVKAGYTMLAHAAYASKNMPHSLQEKIRLFVAQTDNIDTSACISNPPEVSFLLNGKGVEKRVNIAMDTGPQLPTNVTAQLKYGTNLLQVMGNFKGNYIIIIAFTGLVVPPEKPVLKDYLQSGVIEASPDSDIIEGPSRVSLSCPISRKRIKLPVKGQLCKHLQCFDFSNYVHINMRNPTWRCPHCNQPVCYPDIRLDQNMAKILKDVEHNAADVIIDAGGTWKVTKNTGETPEPVREIIHDLEDPMSLLNSGPVVFDLTGDDDAELEVFGDNKVEDRKPCMSDAQGQSNNNNTNKHPSNDDYSSIFDISDVIALDPEILSALGNTAPQPHQASNTGTGQQYSNLSQIPMSIDPMPVPVPFSQTPSPRDRPATTSTVFTIPNPSPQYSQVHASPVTPTGTYLGRTTSPRWNQTYQSQAPPMTTPYTSRKVSVPVTSQSPANVSSFVQSQHVPRVLSQPNNYGVRGLTSSHASTSRQHPSGPTVQSVSRLSDLVDVDLTVPDTSNWRPRMRGSLVPGSHSTALDHMIIRPSQQSQTSTRLNSSQPVQTPSVQTSQAQSPFTTAAYRTETVLGNRNHPVPAPPGIVRPTGPTS
